Measurements reported in PubChem BioAssay AID1468 (National Center for Advancing Translational Sciences (NCATS), 2008).
Values joined by “and” are separate entries in the source; they are usually repeats but may differ in a detail not shown here. Equal entries are not always repeated. Screen size: about 280,000 compounds; about 1,100 (0.39%) were called active. Inconclusive results, whose numbers are uncertain, are shown with a selection of clear calls. Calls come from the whole dose curve; as a rule, active = well fitted inhibition curve with a large enough effect; inconclusive = small, poorly fitted or top-dose-only effect, or effect the other way; inactive = flat fitted curve, though single readings scatter. A potency beside an inconclusive call is a rough fit, not a confirmed value.

Target: Microtubule-associated protein tau (Homo sapiens) (UniProt P10636)
Chain of UniProt P10636 (P10636 whole entry, looked up): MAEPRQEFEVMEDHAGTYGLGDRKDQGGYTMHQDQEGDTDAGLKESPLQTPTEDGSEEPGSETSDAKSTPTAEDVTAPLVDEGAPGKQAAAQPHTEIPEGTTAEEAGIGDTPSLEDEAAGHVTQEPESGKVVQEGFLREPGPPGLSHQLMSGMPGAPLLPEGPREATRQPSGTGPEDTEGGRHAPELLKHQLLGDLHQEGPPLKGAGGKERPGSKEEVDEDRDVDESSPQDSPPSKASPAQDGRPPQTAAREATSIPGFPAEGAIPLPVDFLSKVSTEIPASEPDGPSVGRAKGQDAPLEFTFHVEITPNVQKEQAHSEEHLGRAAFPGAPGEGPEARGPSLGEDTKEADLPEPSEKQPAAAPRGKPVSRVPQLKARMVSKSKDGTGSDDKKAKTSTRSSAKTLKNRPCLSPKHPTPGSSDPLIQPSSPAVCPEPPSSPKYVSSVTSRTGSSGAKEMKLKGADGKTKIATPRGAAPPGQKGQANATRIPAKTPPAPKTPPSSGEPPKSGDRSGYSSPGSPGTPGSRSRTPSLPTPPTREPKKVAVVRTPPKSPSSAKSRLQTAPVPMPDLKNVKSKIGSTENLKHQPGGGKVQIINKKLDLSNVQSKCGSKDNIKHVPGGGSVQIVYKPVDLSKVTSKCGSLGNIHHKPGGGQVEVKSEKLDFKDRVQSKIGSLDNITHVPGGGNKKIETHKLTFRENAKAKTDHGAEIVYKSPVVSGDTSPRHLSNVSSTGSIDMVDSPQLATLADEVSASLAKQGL
Assay: qHTS for Inhibitors of Tau Fibril Formation, Fluorescence Polarization; note: nearly all actives have a fitted effect of over 55% in size
Conditions: K18 P301L tau heparin fibrillization, Alexa594 FP, 6 h; series mostly up to 57.7 µM
How it was run: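 Heparin (20 uM) drove fibril formation of recombinant tau K18 P301L, 15 uM unlabeled with 0.24 uM Alexa 594 label, for 6 hr at 37 C in 100 mM sodium acetate pH 7. Fluorescence polarization (555/632 nm) read 1 hr after 30 uM ThT.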
Potency is the fitted concentration of half-maximal effect; tags give direction and shape of the fitted curve.

Q: `CC(=O)N1CCc2cc(Br)cc(S(=O)(=O)N3CCN(c4cc(C)ccc4C)CC3)c21` was tested. Which Potency did it give?
A: inconclusive: 2.82 µM [inhibitor, partial curve]

Q: `COc1cc(CC(=O)N/N=C/c2ccc([N+](=O)[O-])cc2)c([N+](=O)[O-])cc1OC` was tested. Which Potency did it give?
A: inconclusive: 10 µM [activator, partial curve]

Q: With `O=S(=O)(Nc1ccc(N=Nc2ccccc2)cc1)c1ccccc1` as the compound, how does the Potency read?
A: inconclusive: 35.5 µM [inhibitor, single point]

Q: How did the Potency turn out when `O=C(Nc1nc(-c2ccc(Cl)cc2)cs1)NC1CCCCC1` was run?
A: inconclusive: 39.8 µM [inhibitor, single point]

Q: Which Potency does the source give for `COc1ccc(O)c(/C=N/NC(=O)c2cc(=O)[nH]c3ccccc23)c1` here?
A: inconclusive: 44.7 µM [inhibitor, partial curve, poor fit]

Q: Which Potency does the source give for `Cc1cc(N/N=C/c2ccc(Cl)cc2)nc(NCc2ccccc2)n1` here?
A: inconclusive: 44.7 µM [inhibitor, single point]

Q: How did the Potency turn out when `CC(C)(C)c1ccc(S(=O)(=O)N2CCN(CCC#N)CC2)cc1` was run?
A: inactive

Q: For `NCCc1ccc(O)c(O)c1`, which Potency is on record?
A: inconclusive: 1.41 µM [inhibitor, partial curve] and inconclusive: 1.12 µM [inhibitor, full curve]

Q: Which Potency does the source give for `CCc1ccc(Nc2ccc(S(=O)(=O)N3CCOCC3)cc2[N+](=O)[O-])cc1` here?
A: inconclusive: 39.8 µM [activator, single point]

Q: For `Cc1ccc(C(=O)CCC(=O)Nc2ccc(Cl)c(S(=O)(=O)Nc3cccc(Cl)c3)c2)cc1`, which Potency is on record?
A: inconclusive: 17.8 µM [inhibitor, partial curve]

Q: `CCCn1c(O)c(CN2CCCCC2)c(C)c(C#N)c1=O` was tested. Which Potency did it give?
A: inconclusive: 25.1 µM [inhibitor, partial curve]

Q: With `Cc1cccc(N2CCN(S(=O)(=O)c3ccc(F)c(C(=O)Nc4ccc(C(C)C)cc4)c3)CC2)c1C` as the compound, how does the Potency read?
A: inconclusive: 35.5 µM [inhibitor, single point]

Q: `CC(C)CC(=O)Nc1nc(=S)ss1` was tested. Which Potency did it give?
A: inconclusive: 39.8 µM [inhibitor, single point]

Q: With `CCN(CC)CCOc1nc(C)nc2c1oc1ccccc12` as the compound, how does the Potency read?
A: inactive

Q: With `CCOC(=O)CSc1nnnn1-c1cccc2ccccc12` as the compound, how does the Potency read?
A: inconclusive: 8.91 µM [inhibitor, single point]

Q: Which Potency does the source give for `O=C(Nc1cc(Cl)ccc1Cl)C1CC(=O)N(c2ccc(Br)cc2)C1` (stereo unspecified) here?
A: inconclusive: 15.8 µM [inhibitor, single point]

Q: Which Potency does the source give for `COc1cc(OC)cc(C(=O)Nc2ccc3c(c2)N(C2CCCC2)C(=O)c2ccccc2S3)c1` here?
A: inconclusive: 28.2 µM [inhibitor, single point]

Q: `CCOc1ccc(-c2nnc(SCC(=O)NCc3ccccc3)nc2-c2ccc(OCC)c(OC)c2)cc1OC` was tested. Which Potency did it give?
A: inactive

Q: `FC(F)Sc1ccc(NC(=S)NCc2ccccc2)cc1` was tested. Which Potency did it give?
A: inconclusive: 39.8 µM [inhibitor, single point]

Q: How did the Potency turn out when `COc1cc(O)oc1C=Nc1ccccc1` was run?
A: inactive

Q: `COc1ccc(-c2[nH]nc3nc(-c4cc(OC)c(OC)c(OC)c4)cc(C(=O)O)c23)cc1` was tested. Which Potency did it give?
A: inconclusive: 3.55 µM [inhibitor, single point]

Q: How did the Potency turn out when `Cc1ccc(Nc2nc(OC(C(F)(F)F)C(F)(F)F)nc(N3CCOCC3)n2)cc1` was run?
A: inconclusive: 35.5 µM [inhibitor, partial curve]

Q: `Cc1ccc2[nH]c(CSc3nnc(NC(=O)c4ccccc4C)s3)cc(=O)c2c1` was tested. Which Potency did it give?
A: inactive

Q: For `CCOC(=O)c1ccc(NC(=O)c2nc[nH]c2C(=O)N[C@@H](C)C(=O)OC(C)(C)C)cc1`, which Potency is on record?
A: inconclusive: 39.8 µM [inhibitor, single point]

Q: How did the Potency turn out when `O=C(Nc1nc(-c2cc3ccccc3o2)cs1)c1ccc(S(=O)(=O)N2CCCC2)cc1` was run?
A: inconclusive: 20 µM [inhibitor, single point]

Q: For `COCCCNc1ncnc2onc(-c3ccc(F)cc3)c12`, which Potency is on record?
A: inactive

Q: How did the Potency turn out when `O=C1NN(c2ccccc2)C(=O)/C1=C\c1ccccc1OCC(=O)N1CCOCC1` was run?
A: inactive

Q: For `CCCn1c(/C=C/c2ccco2)nc2ccccc21`, which Potency is on record?
A: inactive

Q: Which Potency does the source give for `CC1=C(c2ccc(C)c(C)c2)S(=O)(=O)N=C1N1CCC(C(=O)NCCc2ccco2)CC1` here?
A: inconclusive: 5.01 µM [inhibitor, single point]

Q: How did the Potency turn out when `COC(=O)C1=C(C)NC(C)=C(C(=O)OC)C1c1ccc(-c2cc(Cl)ccc2Cl)o1` was run?
A: inconclusive: 22.4 µM [inhibitor, single point]

Q: With `COc1ccccc1OCCCCCc1c(C)n[nH]c1C` as the compound, how does the Potency read?
A: inconclusive: 0.112 µM [inhibitor, full curve, poor fit]

Q: `COc1ccc(NC(=O)Cn2c(C)cc3ccccc3c2=O)c(OC)c1` was tested. Which Potency did it give?
A: inactive

Q: With `Cn1c(SCC(=O)c2ccccc2)nnc1C1CC1` as the compound, how does the Potency read?
A: inactive

Q: How did the Potency turn out when `CC1=CC2(O)OCCN(CCO)C2=CC1=O` (stereo unspecified) was run?
A: inconclusive: 14.1 µM [inhibitor, partial curve]

Q: Which Potency does the source give for `Cc1cc(C)n(-c2ccc(C(=O)NC(C)C)cc2)n1` here?
A: inconclusive: 5.01 µM [inhibitor, single point]

Q: With `CC(=O)c1ccc(NC(=O)CC2Nc3cccc4cccc(c34)NC2=O)cc1` (stereo unspecified) as the compound, how does the Potency read?
A: inactive and inconclusive: 20 µM [inhibitor, partial curve, poor fit]

Q: With `COc1cccc(CNC(=O)CCC2CCCN(C(=O)c3cc(C)on3)C2)c1` (stereo unspecified) as the compound, how does the Potency read?
A: inconclusive: 39.8 µM [inhibitor, single point]

Q: For `CCc1cccc(CC)c1NC(=O)c1ccc2c(c1)CCN2S(=O)(=O)c1ccccc1`, which Potency is on record?
A: inconclusive: 2.24 µM [inhibitor, partial curve, poor fit]

Q: How did the Potency turn out when `CSc1ccc(CCNC(=O)CCCn2nc(C)c3sc4ccccc4c3c2=O)cc1` was run?
A: inconclusive: 10 µM [inhibitor, partial curve, poor fit]

Q: For `CC(c1ccccc1)N1C(=O)/C(=C/c2ccncc2)SC1=S` (stereo unspecified), which Potency is on record?
A: inconclusive: 39.8 µM [inhibitor, single point]

Q: How did the Potency turn out when `O=C1CC(Nc2ccc3ccccc3c2)C(=O)N1Cc1ccccc1` (stereo unspecified) was run?
A: inactive

Q: How did the Potency turn out when `COc1ccc(OC)c(/C=N/NC(=O)c2cc3c(OC)cc(OC)cc3[nH]2)c1` was run?
A: inconclusive: 15.8 µM [activator, partial curve]

Q: `COc1cc(NC(=O)c2cncc(-c3ccc(C#N)cc3)c2)cc(C(=O)Nc2cccc(C(F)(F)F)c2)c1` was tested. Which Potency did it give?
A: inconclusive: 39.8 µM [inhibitor, single point]

Q: How did the Potency turn out when `O=C1NNC(c2ccccc2)=N/C1=C\c1ccco1` was run?
A: inconclusive: 25.1 µM [inhibitor, single point]

Q: For `C/C(=N/NC(=O)c1ccncc1)C1=C(O)CC(C)(C)CC1=O`, which Potency is on record?
A: inactive

Q: With `NS(=O)(=O)c1ccc(NC(=O)CSc2ccccn2)cc1` as the compound, how does the Potency read?
A: inconclusive: 0.631 µM [inhibitor, single point]

Q: `O=C1CC(c2ccccc2)CC(O)=C1C=NCc1ccco1` (stereo unspecified) was tested. Which Potency did it give?
A: inactive

Q: How did the Potency turn out when `O=C(NC1=NCCS1)c1cc2ccccc2o1` was run?
A: inconclusive: 15.8 µM [inhibitor, single point]

Q: With `COc1ccc(NC(=O)CCn2cnnn2)cc1` as the compound, how does the Potency read?
A: inconclusive: 39.8 µM [inhibitor, single point]

Q: `Cc1cccc(CNC(=O)c2ccc(Cn3c(SCc4cccc(F)c4)nc4cccnc43)cc2)c1` was tested. Which Potency did it give?
A: inactive

Q: `CCOC(=O)C1(CC2CCCCO2)CCN(C(=O)Nc2cccc(SC)c2)CC1` (stereo unspecified) was tested. Which Potency did it give?
A: inconclusive: 22.4 µM [inhibitor, single point]

Q: How did the Potency turn out when `CC(C)c1ccc(S(=O)(=O)c2nnn3c2nc(N2CCCCC2)c2ccccc23)cc1` was run?
A: inconclusive: 44.7 µM [inhibitor, single point]

Q: `O=C(NC(=S)Nc1ncccn1)c1ccccc1Cl` was tested. Which Potency did it give?
A: inactive

Q: Which Potency does the source give for `O=C(Nc1ccc(Cl)c(S(=O)(=O)N2CCOCC2)c1)c1ccccc1-c1ccc(C(F)(F)F)cc1` here?
A: inconclusive: 22.4 µM [inhibitor, single point]

Q: With `CCCCC(CC)CNC(=O)c1ccc(Cn2c(=O)[nH]c3cc(OC)c(OC)cc3c2=O)cc1` (stereo unspecified) as the compound, how does the Potency read?
A: inconclusive: 6.31 µM [inhibitor, full curve]

Q: Which Potency does the source give for `COc1ccc(-c2nn(C)c3sc(C(=O)Nc4cc(OC)c(OC)c(OC)c4)cc23)cc1OC` here?
A: inconclusive: 1.12 µM [activator, full curve, poor fit]

Q: `CCN1c2ccccc2-c2nc(SCC(=O)Nc3cc(OC)cc(OC)c3)ncc2S1(=O)=O` was tested. Which Potency did it give?
A: inconclusive: 1.41 µM [inhibitor, full curve, poor fit]

Q: How did the Potency turn out when `COc1ccc(CCNC(=O)c2c(Nc3ccccc3C)sc(C(=O)c3ccccc3)c2N)cc1OC` was run?
A: inconclusive: 5.01 µM [activator, full curve, poor fit]

Q: With `CCCCC(=O)O[C@]1(C(=O)CO)[C@H](C)C[C@H]2[C@@H]3CCC4=CC(=O)C=C[C@]4(C)[C@@]3(F)[C@@H](O)C[C@@]21C` as the compound, how does the Potency read?
A: inactive

Q: `c1ccc2[nH]c(CN3CCOCC3)nc2c1` was tested. Which Potency did it give?
A: inactive

Q: Which Potency does the source give for `CCCOc1ccc(C(=O)Nc2cc(-c3nc4ccccc4[nH]3)ccc2C)cc1` here?
A: inconclusive: 25.1 µM [inhibitor, single point]

Q: For `COc1nc(N/N=C/c2ccc(-c3ccccc3[N+](=O)[O-])o2)nc(N2CCOCC2)n1`, which Potency is on record?
A: inactive

Q: For `Cc1ccc(NC(=O)Nc2nnc(CSCCOc3ccc(Cl)cc3)s2)cc1`, which Potency is on record?
A: inconclusive: 17.8 µM [inhibitor, partial curve]

Q: For `Cc1ccc(C(=O)c2oc3ccccc3c2NC(=O)COc2ccccc2Cl)cc1`, which Potency is on record?
A: inactive

Q: `COc1ccc(-c2ccc(C(=S)N3CCN(C(C)=O)CC3)o2)cc1` was tested. Which Potency did it give?
A: inconclusive: 39.8 µM [inhibitor, single point]

Q: With `COc1cccc(C(=O)c2cn(CC(=O)NCCc3ccccc3)c3nc(C)ccc3c2=O)c1` as the compound, how does the Potency read?
A: inactive
